Laboratory results: PubChem BioAssay AID504332 (National Center for Advancing Translational Sciences (NCATS), 2011)
Hit rate of the full screen: of about 350,000 compounds, about 31,000 (8.9%) were called active. The shares of active, inactive and inconclusive entries below differ from those in the screen. The call rests on the fitted dose curve; in most records, active means well fitted inhibition curve with a large enough effect; inconclusive means small, poorly fitted or top-dose-only effect; inactive means no such curve, though single readings can be large or run the other way. Where the call is inconclusive, the potency comes from a doubtful curve fit.
Further: nearly all actives have a fitted effect of over 75% in size.
On the % scale 0 is the no-effect control and ±100 the full control effect; potency means the concentration at half of the fitted maximal effect; tags describe the fitted curve by direction and shape.

What follows are compounds tested against Histone-lysine N-methyltransferase EHMT2 (Homo sapiens) (UniProt Q96KQ7) (assay: qHTS Assay for Inhibitors of Histone Lysine Methyltransferase G9a). Conditions: G9a H3K9 monomethylation, AlphaScreen, 2 h; activity, negative = inhibition: at 59 µM (top of the series) unless noted.
Sequence of UniProt Q96KQ7 (Q96KQ7 whole entry, looked up): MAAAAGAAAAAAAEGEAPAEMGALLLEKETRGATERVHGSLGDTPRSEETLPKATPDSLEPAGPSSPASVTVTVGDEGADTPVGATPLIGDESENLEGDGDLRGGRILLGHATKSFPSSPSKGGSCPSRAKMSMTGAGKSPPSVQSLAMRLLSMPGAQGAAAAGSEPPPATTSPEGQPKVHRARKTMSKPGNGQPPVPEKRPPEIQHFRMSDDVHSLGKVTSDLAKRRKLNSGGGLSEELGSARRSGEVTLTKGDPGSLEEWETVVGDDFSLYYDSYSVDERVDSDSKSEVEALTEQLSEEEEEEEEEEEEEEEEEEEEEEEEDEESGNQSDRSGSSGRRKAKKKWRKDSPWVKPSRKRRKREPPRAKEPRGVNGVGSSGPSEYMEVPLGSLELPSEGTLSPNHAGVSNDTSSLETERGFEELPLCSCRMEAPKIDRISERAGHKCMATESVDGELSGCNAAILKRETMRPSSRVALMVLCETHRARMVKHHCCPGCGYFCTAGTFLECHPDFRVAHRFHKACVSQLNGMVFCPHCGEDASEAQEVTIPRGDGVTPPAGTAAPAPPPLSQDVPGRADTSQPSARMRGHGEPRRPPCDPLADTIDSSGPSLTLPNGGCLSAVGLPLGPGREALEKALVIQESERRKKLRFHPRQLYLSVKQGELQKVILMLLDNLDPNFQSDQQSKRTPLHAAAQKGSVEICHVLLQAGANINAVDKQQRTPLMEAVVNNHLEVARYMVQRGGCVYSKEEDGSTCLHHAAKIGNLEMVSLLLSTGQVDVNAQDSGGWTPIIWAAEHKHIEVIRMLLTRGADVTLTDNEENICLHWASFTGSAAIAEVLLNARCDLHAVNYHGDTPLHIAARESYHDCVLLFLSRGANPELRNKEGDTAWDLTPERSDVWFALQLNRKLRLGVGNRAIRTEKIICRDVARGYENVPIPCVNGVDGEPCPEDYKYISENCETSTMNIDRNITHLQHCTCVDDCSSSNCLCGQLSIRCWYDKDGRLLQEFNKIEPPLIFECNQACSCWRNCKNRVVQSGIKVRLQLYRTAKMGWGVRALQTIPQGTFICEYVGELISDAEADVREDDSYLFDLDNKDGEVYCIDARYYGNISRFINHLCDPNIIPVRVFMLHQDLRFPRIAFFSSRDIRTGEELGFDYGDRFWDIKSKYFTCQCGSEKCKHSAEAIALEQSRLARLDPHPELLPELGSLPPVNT
Method in brief: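 G9a (20 nM) preincubated 15 min RT with compounds, then 500 nM biotinylated H3K9 peptide and 20 uM SAM added; 2 h RT reaction. Monomethyl-H3K9 product detected by AlphaScreen with anti-H3K9me1 antibody, streptavidin donor and anti-rabbit IgG acceptor beads.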
For CC(C)N1CCN(Cc2ccc(-c3ccccc3Cl)o2)CC1CCO (configuration not stated), the Potency was inconclusive: 89.1 µM [inhibitor, partial curve, poor fit]. In the case of CCC1CCCCN1CCn1c(=S)[nH]c2cc(OC)c(OC)cc2c1=O (configuration not stated), the Potency is reported as active: 50.1 µM. In the case of Cc1cccc(-n2ncc3c(NNC(=O)c4ccccc4Cl)ncnc32)c1, the Potency is reported as “inactive”. CCCc1oc(C(=O)O)cc1CN1CCOCC1 was tested, and the Potency was inconclusive: 89.1 µM [inhibitor, single point]. For Cc1cccc(Cn2c(N3CCN(C)CC3)nc3c2c(=O)n(C)c(=O)n3C)c1, the Potency was active: 20 µM. COc1ccc(NC(=O)Nc2c(C)n(C)n(-c3ccccc3)c2=O)cc1 was tested, and the Potency was “inactive”. For O=C(OCn1cncn1)c1ccc(Cl)cc1Cl, the Potency was inconclusive: 1.78 µM [inhibitor, partial curve, poor fit]. In the case of N#CC1=C(N)C2=C(N3CCCCC3)CCCC2C1(C#N)C#N (configuration not stated), the activity, negative = inhibition is reported as inconclusive: -76.7% [inhibitor]. For CC(=O)c1ccc(-c2ccc(C(=O)NCC3CCCO3)o2)cc1 (configuration not stated), the Potency was active: 79.4 µM. In the case of Cc1cccc(C(=O)NC(=S)NNC(=O)Cc2ccccc2)c1, the Potency is reported as active: 7.08 µM. In the case of Cc1ccc(C(=O)COC(=O)c2cc(=O)[nH]c3ccccc23)cc1C, the Potency is reported as active: 28.2 µM. For COC(=O)c1cc(Nc2cc(C)c3c(O)cccc3n2)cc(C(=O)OC)c1, the Potency was “inactive”. Cc1ccc(C(=O)NCc2ccncc2)cc1S(=O)(=O)N1CCOCC1 was tested, and the Potency was inconclusive: 89.1 µM [inhibitor, single point]. With COc1ccc(N2CCN(C(=O)c3ccccc3)CC2)c([N+](=O)[O-])c1 the Potency was inconclusive: 39.8 µM [inhibitor, partial curve]. Cc1cccc(N2C(=O)c3cccnc3C2=O)c1 was tested, and the Potency was inconclusive: 22.4 µM [inhibitor, single point]. O=C1CC(c2ccc(Cl)c([N+](=O)[O-])c2)c2ccc3ccccc3c2N1 (configuration not stated) was tested, and the Potency was “inactive”. With COc1cccc(C(=O)Nc2nnc(S(=O)(=O)N3CCCc4ccccc43)s2)c1 the Potency was inconclusive: 1.78 µM [inhibitor, full curve, poor fit]. For COc1ccc(C2C(C(=O)c3cccs3)=C(O)C(=O)N2c2nncs2)cc1 (configuration not stated), the Potency was active: 44.7 µM. For Cc1cccc(C)c1NC(=O)Cn1cc(C(=O)C2CC2)c2ccccc21, the Potency was “inactive”. For CN(Cc1ccccc1)C(=O)COC(=O)COc1ccc(C#N)cc1, the Potency was “inactive”. O=S(=O)(NCC(c1ccccc1)N1CCc2ccccc21)c1ccc(Cl)cc1 (configuration not stated) was tested, and the Potency was inconclusive: 17.8 µM [inhibitor, partial curve, poor fit]. For O=C(CNCCc1ccc(F)cc1)Nc1cc(F)ccc1F, the Potency was inconclusive: 70.8 µM [inhibitor, single point]. Cc1ccccc1C(=O)Nc1ccnn1C1CCN(C(=O)c2ccoc2)CC1 was tested, and the Potency was “inactive”. With O=C1c2ccccc2NC(c2cn[nH]c2-c2ccccc2)N1O (configuration not stated) the Potency was inconclusive: 39.8 µM [inhibitor, single point]. For CSCCC(C(=O)N1CC2(C)CC1CC(C)(C)C2)N1C(=O)c2ccccc2C1=O (configuration not stated), the Potency was inconclusive: 20 µM [inhibitor, single point]. In the case of CCOC(=O)c1cnc(-n2nc(C)cc2C)nc1Nc1ccc(OC)cc1, the activity, negative = inhibition is reported as inconclusive: -75% [inhibitor] [at 12.7 µM]. C=CCc1ccccc1OCCSc1nc(-c2ccccc2F)nc2cc(=O)[nH]n12 was tested, and the Potency was “inactive”. With O=C1CCCC2=C1C(c1cccc(O)c1)C1=C(N2)c2ccccc2C1=O (configuration not stated) the Potency was active: 31.6 µM. In the case of COc1ccccc1/C=C/C(=O)Nc1nc2n(n1)C(c1ccc(F)cc1)C=C(c1ccccc1)N2 (configuration not stated), the Potency is reported as inconclusive: 35.5 µM [inhibitor, partial curve, poor fit]. Cc1ccc(OCCn2c(C3CC(=O)N(Cc4ccc(F)cc4)C3)nc3ccccc32)c(C)c1 (configuration not stated) was tested, and the Potency was “inactive”. In the case of Cc1ccc(-c2nc(SCC(N)=O)c(C#N)c3c2CCCC3)cc1, the Potency is reported as “inactive”. With OCCCNC(=S)Nc1ccc(Nc2ccccc2)cc1 the Potency was inconclusive: 44.7 µM [inhibitor, partial curve]. COc1c[nH]n(C2CCCCC2)c(=O)c1=O was tested, and the Potency was active: 22.4 µM. With Nc1nonc1NC(=O)CSc1ncccc1C(=O)O the Potency was inconclusive: 39.8 µM [inhibitor, single point]. For COc1ccc(C(=O)N2CCN(C(=O)CC(C)C)CC2)cc1OC, the Potency was inconclusive: 31.6 µM [inhibitor, single point]. For CC(=O)N1CCCc2cc(S(=O)(=O)N3CCN(C4CCCCC4)CC3)ccc21, the Potency was inconclusive: 70.8 µM [inhibitor, partial curve]. For Cc1cc(C)cc(-n2ccnc2SCC(=O)Nc2ccccc2F)c1, the Potency was active: 14.1 µM. In the case of COc1ccc(C)cc1S(=O)(=O)N1CCCC(C(=O)N2CCN(c3ccccc3)CC2)C1 (configuration not stated), the Potency is reported as inconclusive: 22.4 µM [inhibitor, partial curve, poor fit]. For CC1=C(C(=O)N2CCOCC2)C(c2ccccc2F)C2=C(CCCC2=O)N1 (configuration not stated), the Potency was inconclusive: 56.2 µM [inhibitor, partial curve, poor fit]. With CCOc1ccc(OCCn2c(S(=O)(=O)O)nc3c(N)ncnc32)cc1 the Potency was inconclusive: 89.1 µM [inhibitor, single point]. Cc1ccc(C(=O)N2CCN(C(=O)N3CCOCC3)CC2)cc1 was tested, and the Potency was “inactive”. With O=C(NC1CCCC1)c1cc2nc(-c3ccco3)cc(C(F)(F)F)n2n1 the Potency was “inactive”. For Cc1cccc(C)c1-n1c(C)cc(/C=C2\C(=O)NN(c3ccccc3)C2=O)c1C, the Potency was active: 15.8 µM. With O=C(CSc1cccc2cccnc12)Nc1cccc(S(=O)(=O)N2CCOCC2)c1 the Potency was inconclusive: 89.1 µM [inhibitor, partial curve, poor fit]. N#Cc1nc(-c2ccccc2F)oc1NC1CCCCC1 was tested, and the Potency was inconclusive: 79.4 µM [inhibitor, single point]. With CN1CCN(c2ccccc2NC(=O)c2cccc([N+](=O)[O-])c2)CC1 the Potency was inconclusive: 7.08 µM [inhibitor, single point]. In the case of N#CC1=C(N)N(c2ccc(F)cc2)C(=O)C1, the Potency is reported as active: 39.8 µM. With CCOc1ccc(OCc2ccc(C(=O)N3CCCC3)o2)cc1 the Potency was inconclusive: 39.8 µM [inhibitor, single point]. With CC(C)c1ccc(C2NC(=O)c3c(sc4c3CCN(C)C4)N2)cc1 (configuration not stated) the Potency was inconclusive: 10 µM [inhibitor, partial curve]. Cc1cc(C(=O)Nc2ccccc2C(=O)O)c(C)o1 was tested, and the Potency was “inactive”. With CCN(CC)S(=O)(=O)c1cccc(-c2n[nH]c(=S)n2/N=C/c2ccc(OC)cc2)c1 the Potency was inconclusive: 1.41 µM [inhibitor, full curve, poor fit]. In the case of O=[N+]([O-])c1ccccc1CNC1CCCc2ccccc21 (configuration not stated), the Potency is reported as inconclusive: 39.8 µM [inhibitor, partial curve]. Cc1cc(NNC(=O)c2cccc(C(F)(F)F)c2)nc2c1c(C)nn2C was tested, and the Potency was inconclusive: 70.8 µM [inhibitor, single point]. For CC(C)(C)OC(=O)NC(CCNC=C1C(=O)OC(C)(C)OC1=O)C(=O)O (configuration not stated), the Potency was inconclusive: 3.16 µM [inhibitor, single point]. In the case of O=C(Nc1nc2cc(Cl)ccc2s1)C1CCCN(S(=O)(=O)c2cccc3cccnc23)C1 (configuration not stated), the Potency is reported as inconclusive: 79.4 µM [inhibitor, single point]. For COc1ccccc1C(c1nnnn1CC1CCCO1)N1CCC(C(N)=O)CC1 (configuration not stated), the Potency was “inactive”. In the case of CC1(C(=O)NNC(=S)NCC2CCCO2)CC1(Cl)Cl (configuration not stated), the Potency is reported as “inactive”. For CC(=O)N1CCCC1c1nc2ccccc2n1Cc1cccc(C)c1 (configuration not stated), the Potency was inconclusive: 20 µM [inhibitor, partial curve, poor fit]. Cc1cccc(NC(=O)c2cccc(C(=O)Nc3cccc(C)c3C)n2)c1C was tested, and the Potency was active: 50.1 µM. CC1(C)CC(=O)c2c(nc(SCC(=O)Nc3nsc(-c4ccccc4)n3)c(C#N)c2-c2ccccc2)C1 was tested, and the Potency was inconclusive: 5.01 µM [inhibitor, single point]. With COc1ccc(N2CCN(CC(=O)NC(=O)NCc3ccco3)CC2)cc1 the Potency was active: 31.6 µM. With CCN1CCN(CCC(=O)Nc2cccc(OC)c2)CC1 the Potency was inconclusive: 89.1 µM [inhibitor, single point]. With Cc1ccc(C)c(N2CCN(C(=O)c3c(C)oc4nc(C)nc(N5CCOCC5)c34)CC2)c1 the Potency was inconclusive: 0.355 µM [inhibitor, partial curve, poor fit]. In the case of CC(=O)Nc1cccc(C(=O)OCC(=O)NCc2cc(C)c(O)c(C)c2)c1, the Potency is reported as inconclusive: 22.4 µM [inhibitor, partial curve]. O=C1/C(=C/c2ccc(F)cc2)SC(=S)N1Nc1ncc(C(F)(F)F)cc1Cl was tested, and the Potency was active: 44.7 µM. For COC(=O)c1c(NC(C)=O)sc2c1CCCC2, the Potency was “inactive”. In the case of Cc1cc(Cl)ccc1NC(=O)CCC(=O)N/N=C/c1cccnc1, the Potency is reported as inconclusive: 3.16 µM [inhibitor, partial curve, poor fit]. In the case of CCOC(=O)c1cc(-c2nnc(SCC(=O)Nc3ccc(F)cc3)o2)c(C)nc1C, the Potency is reported as inconclusive: 10 µM [inhibitor, partial curve, poor fit]. With CCN1/C(=C\C(C)=O)Sc2ccc(OC)cc21 the Potency was active: 5.01 µM. With CS(=O)(=O)C1=NSC2=NC(=O)/C(=C\c3ccc(OC(=O)c4ccco4)cc3)C(=N)N21 the Potency was inconclusive: 50.1 µM [inhibitor, partial curve, poor fit]. With CC(=O)NCCC(=O)Nc1cc(S(=O)(=O)N2CCCCC2)ccc1N1CCN(C)CC1 the Potency was active: 50.1 µM. For O=C(CSc1ccsc1[N+](=O)[O-])NCCc1ccccc1, the Potency was inconclusive: 28.2 µM [inhibitor, single point].
